# Laboratory results reported in the supplement of paper PMC10338343.
# ± gives the standard deviation. Only a part is listed here, and it is no random draw.
# System: MIWI (PIWIL1) piRISC loaded with L1MC piRNA (30 nt)
# Test: pre-steady-state target cleavage rate (min^-1); MIWI and MILI are mouse PIWI proteins and EfPiwi is from a freshwater sponge; tags in brackets are library labels; higher = faster piRNA-guided slicing of the target
# Details: guide: L1MC piRNA 5'p-UAACUAAAUACUAUGCAAGCUGUAGGUCCU; auxiliary factor: 500 nM mouse GTSF1
# Procedure, shortened: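 Reactions were run for 0–8 or 0–960 min at 33 °C in HEPES–potassium acetate buffer, combining 1 nM active affinity-purified piRISC with one synthetic guide, […] transcribed, DNA-blocked target RNA library and, in some cases, 500 nM GTSF1 partner protein. Sequencing of uncleaved targets followed, with normalisation to depth and to weakly complementary targets. Three trials were pooled, k3 was capped at 0.0001 min^-1, and the pre-steady-state cleavage rate was taken from a burst-and-steady-state fit.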
# 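Note: 1 nM active piRISC with 0.1 nM target library at 33 °C single turnover.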
row,Sequence,pre-steady-state target cleavage rate
1,UCCUCCUACAGCUUGCAAUCUAUUUAGUAA,0.103 ± 0.015
2,UCCUGGAACAGGAUGCAUAGUAUUUACAAA,0.0171 ± 0.0066
3,UCCUGGAUGUCGUGUGCAUAGUAUUUAGUUA,0.0163 ± 0.0053
4,UCGACCUACAGCUUGCAUUCAAUUUAGUUA,0.0128 ± 0.006
5,UCCUCCUACAGCUUGCUAAGUAUUUACAAA,0.0127 ± 0.0064
6,UCCUGGAUGUCCUAGCAUAGUAUUUAGUAA,0.0129 ± 0.0075
7,UCCUGGAACAGCUUCGAUAGUAUUUAGUUA,0.288 ± 0.029
8,UCCUCCUACAGCUUGCAAUCUAUUUAGAAA,0.0685 ± 0.02
9,UCCUCCUACAGGAUGCAUAGUAUUUACAAA,0.253 ± 0.041
10,UCCUGGAUGUGCUUGCAUAGUAUUUUCAAA,0.0136 ± 0.005
11,UCCACCUACAGCAUGCAUAGUAUUUUCAAA,0.261 ± 0.034
12,UCCACCUACAGCUUGCUAUGUAUUUAGAAA,0.00878 ± 0.0045

# Same assay, conditions: guide: L1MC piRNA 5'p-UAACUAAAUACUAUGCAAGCUGUAGGUCCU; auxiliary factor: none (no GTSF1)
row,Sequence,pre-steady-state target cleavage rate
1,UCCUGGAUGUCGAACGCUAGUAUUUAGUUA,< 0.0001
2,UCCUGGAUGUCGAACGAUAGAAUAUAGUUA,< 0.0001
3,UCCUGCAACAGCUUGCUUAGUAUUUAGUUA,0.0478 ± 0.013
4,AGGUCGUACAGCUUGCAUAGUAUUUAGUUA,0.0817 ± 0.012
